# Test results as given in paper PMC6919601, “Identification of Plasmodium dipeptidyl aminopeptidase allosteric inhibitors by high throughput screening” (PLoS ONE, 2019).
# In all, about 110,000 compounds went through this assay and about 230 (0.21%) showed an effect of 50% or more. This is one part of the list.
# Target: DPAP1 (Plasmodium falciparum, UniProt Q8IIJ9)
# Assay: primary screen, percent inhibition; read by cleavage of a fluorogenic dipeptide substrate; higher = more effect of the substance
# Parameters: species or system P. falciparum D10 trophozoite lysates; single well
# 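Note: 30 min substrate incubation versus DMSO and 10 µM JCP410 controls.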
# Chain of DPAP1 (Q8IIJ9 whole entry, looked up): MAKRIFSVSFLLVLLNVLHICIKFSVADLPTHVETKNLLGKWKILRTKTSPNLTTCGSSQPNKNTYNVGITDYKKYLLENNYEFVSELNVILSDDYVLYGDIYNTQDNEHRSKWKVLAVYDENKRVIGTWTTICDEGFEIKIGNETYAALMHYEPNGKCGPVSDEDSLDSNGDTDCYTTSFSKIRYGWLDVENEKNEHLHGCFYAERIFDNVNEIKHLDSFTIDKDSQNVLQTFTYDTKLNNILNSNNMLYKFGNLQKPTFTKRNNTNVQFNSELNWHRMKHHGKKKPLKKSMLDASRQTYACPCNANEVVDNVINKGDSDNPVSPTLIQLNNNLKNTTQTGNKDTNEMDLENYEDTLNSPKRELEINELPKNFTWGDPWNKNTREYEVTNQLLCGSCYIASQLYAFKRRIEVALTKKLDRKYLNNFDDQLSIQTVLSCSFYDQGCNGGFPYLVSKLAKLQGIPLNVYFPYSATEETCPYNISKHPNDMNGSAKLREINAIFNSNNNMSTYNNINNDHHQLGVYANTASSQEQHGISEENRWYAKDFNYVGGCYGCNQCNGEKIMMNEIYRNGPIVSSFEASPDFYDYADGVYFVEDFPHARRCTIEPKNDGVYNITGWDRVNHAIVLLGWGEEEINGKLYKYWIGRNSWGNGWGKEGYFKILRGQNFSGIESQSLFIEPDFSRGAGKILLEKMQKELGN
row,Compound,% Inhibition @ 10 uM [%]
1,CC(=O)NC(C(=O)c1ccccc1)C(=O)c1ccccc1,8.4
2,Cc1cccc(C(=O)NC(C)c2nc3ccccc3n2C)c1 (stereo not drawn),0.505
3,COc1cccc(C(=O)NCCN2CCCC2)c1,6.35
4,COc1cc(/C=C2/S/C(=N/c3ccccc3)N(C)C2=O)ccc1OCC#N,11
5,N#CCNC(=O)[C@H](Cc1ccccc1)NC(=O)c1ccc(-c2ccccc2Cl)cc1,1.35
6,COc1cc2nc(NCCN3C(C)CCCC3C)n3nc(-c4cccnc4)nc3c2cc1OC (stereo not drawn),-4.21
7,CCn1cc(CNC(=O)c2sc3cccc(Cl)c3c2Cl)cn1,0.983
8,Cn1cc(NC(=O)N2CCOCC2)c2ccccc2c1=O,3.72
9,CCOC(=O)c1sc(NC(=O)c2cc(=O)c3ccccc3o2)nc1C,0.0289
10,O=C(COc1cccc2ccccc12)Nc1ccc(S(=O)(=O)N2CCCC2)cc1,-1.51
11,CCN1C(=O)C(=Cc2ccc(N(CC)CC)cc2)C(=O)N(CC)C1=S,5.66
12,O=C1/C(=C\c2ccc(Br)o2)CC/C1=C/c1ccc(Br)o1,1.07
13,COc1ccc(-c2cc(C(=O)NCCCN3CCOCC3)c3cc(C(C)C)ccc3n2)cc1,-2.26
14,CC(=O)c1nn(-c2cccc(Br)c2)c(-c2cccs2)c1C#N,2.01
15,COCCNc1nc2ccccc2n2nnnc12,5.84
16,COc1ccc(-c2nc(SC)cc(N3CCN(C)CC3)n2)cc1,-11.4
17,CC1CCc2c(sc(NC(=O)C3CC=CCC3C(=O)O)c2C(N)=O)C1 (stereo not drawn),16.5
18,CCS(=O)(=O)N1CCC2(CC1)OC(=O)C(C)=C2C(=O)NCCc1ccc(OC)c(OC)c1,-5.72
19,COc1ccc(NC(=O)CN(Cc2ccc(Cl)cc2)S(=O)(=O)c2ccccc2)cc1Cl,3.5
20,O=C(Nc1ccc2ccccc2c1)c1ccccc1F,-5.11
21,N#Cc1c(-c2ccccc2)cc(C(F)(F)F)nc1S,76.9
22,COc1ccc(-n2c(-c3ccccc3)cn(-c3ccc(C)cc3)c2=O)cc1,1.15
23,CNC(=O)c1cc2c(=O)n3cc(C)ccc3nc2n(Cc2ccco2)c1=N,-3.27
24,CC(=O)NS(=O)(=O)c1ccc(NC(=O)C2CC=CCC2C(=O)O)cc1 (stereo not drawn),-0.318
25,C=CCNc1nnc(COc2ccc(Br)cc2)s1,-1.71
26,CCc1ccc(OCC(=O)Nc2ccc(S(=O)(=O)N3CCOCC3)cc2)cc1,-7.84

row,Compound,% Inhibition @ 10 uM [%]
1,O=C(COc1ccccc1F)n1nnc2ccccc21,-1.6
2,COC(=O)C1=C(C)N=c2s/c(=C/c3ccco3)c(=O)n2C1c1cccs1 (stereo not drawn),7.62
3,Cc1ccc2occ(CC(=O)Nc3nc4ccc(S(C)(=O)=O)cc4s3)c2c1,-4.19
4,O=C(Nc1ccc(F)cc1)Nc1cccc(Cl)c1,1.48
5,CC1CN(Cc2cccc(F)c2)CC(C)O1 (stereo not drawn),-3.15
6,CC(C)C(NC1C=CS(=O)(=O)C1)C(=O)O (stereo not drawn),-5.28
7,Oc1c2nc(S)nc-2cnn1-c1ccccc1,87.4
8,COc1ccc(S(=O)(=O)N2CCN(c3nc4ccccc4nc3-n3nc(C)cc3C)CC2)cc1,-3.9
9,COc1ccc(C2NC(=O)NC(C)=C2C(=O)Nc2ccc(Cl)cc2)cc1OC (stereo not drawn),0.35
10,Cc1ccc(CCN2CC(C(=O)NCCCN3CCN(C)CC3)CC2=O)cc1 (stereo not drawn),1.62
11,COc1ccc(NC(=O)c2c(NC(=O)CCC(=O)O)sc3c2CCC(C(C)(C)C)C3)cc1 (stereo not drawn),10.3
12,OC(COc1ccc(Br)cc1)CN1CCN(c2ccccc2)CC1 (stereo not drawn),0.389
13,Cc1cc(=O)oc(C)c1C(=O)NCCCN1C(C)CCCC1C (stereo not drawn),-0.519
14,CCOC(=O)c1c(C)c(-c2ccccc2)n(CC(=O)Nc2cccnc2)c1C,-1.66
15,Cc1ccc(-c2cc(C(=O)N3C(C)CCCC3C)n[nH]2)cc1 (stereo not drawn),-3.1
16,CCSc1nc(O)c2c(n1)OC(N)=C(C#N)C2C(C)C (stereo not drawn),-5.85
17,Cc1cc(C)n2nc(C)c(-c3ccc(Cl)cc3)c2n1,0.345
18,Cc1cc(=O)n2nc(N3CCC(C(=O)N4CCOCC4)CC3)sc2n1,-2
19,CCN1CCN(C(=O)C2CCN(c3nnc(C)c4c(C)n(-c5ccc(C)cc5)nc34)CC2)CC1,2.92
20,CCc1ccc(C2C(C#N)=C(N)OC3=C2C(=O)c2ccccc2C3=O)cc1 (stereo not drawn),0.815
21,COc1ccc(/N=C2/S/C(=C\c3ccc(O)c(Cl)c3)C(=O)N2C)cc1,2.37
22,COc1ccc(NC(=O)c2scc3c2CCCC3)cc1,-2.56
23,COc1ccc2c(c1)cc1n2CCN=C1NCCO,2.14
24,OC1=C2C(=Nc3nc4ccccc4n3C2c2cccc(F)c2Br)CCC1 (stereo not drawn),-1.62
25,COc1ccc(CNC(=O)CN(c2cc(Cl)ccc2C)S(C)(=O)=O)cc1,2.13
26,Cc1ccc(CNC(=O)NC2CCCCC2)cc1,3.85

row,Compound,% Inhibition @ 10 uM [%]
1,O=C(c1cccs1)c1no[n+]([O-])c1C(=O)c1cccs1,5.7
2,CSC1=N/C(=C\C=C\c2cccs2)C(=O)S1,0.884
3,NC(=O)CS(=O)(=O)c1nc2ccccc2n1Cc1ccccc1F,2.64
4,CCn1c(SC)nc2sc3c(c2c1=O)CCc1ccccc1-3,-7.23
5,O=C(CSc1ccccc1)NC1CCCC1,1.02
6,Cc1[nH]nc(-c2ccc(S(=O)(=O)N3CCCC3)s2)c1C,-4.36
7,COc1ccccc1/C=C/CN1CCCC(O)C1 (stereo not drawn),0.217
8,CCCNC(=O)c1ccc2c(c1)c(C)c(C)n2C,0.747
9,COc1ccc(-c2c(C)oc3cc(OC(C)C(=O)O)ccc3c2=O)cc1OC (stereo not drawn),-1.11
10,O=C(Cn1ncc2c3ccccc3n(Cc3ccccc3)c2c1=O)NCC1CCCO1 (stereo not drawn),0.137
11,COc1ccc(/C=C2\Oc3cc(OCc4ccccc4F)ccc3C2=O)cc1,-1.81
12,NC(=O)/C(=C\c1ccccc1F)NC(=O)c1ccccc1,1.27
13,CCN(CC)CCCN1C(=O)CSC1c1ccc2c(c1)OCO2 (stereo not drawn),2.94
14,C(=N\c1cc(-c2ccccc2)nn1-c1ccccc1)/c1cccnc1,2.8
15,CCN(CC)c1ccc2c(C(F)(F)F)cc(=O)oc2c1,-4.21
16,CN1CCN(CCNC(=O)C2c3ccccc3C(=O)N(C)C2c2cccs2)CC1 (stereo not drawn),-7.02
17,COc1cc2nc(S)nc(NC3CCCCCC3)c2cc1OC,-4.69
18,O=C(c1ccc(CN2CCc3ccccc3C2)cc1)N1CCCCC1,-0.0626
19,C=CCn1c(SCc2ccc(Cl)cc2)nc2c1c(=O)n(C)c(=O)n2C,1.35
20,COc1ccc(S(=O)(=O)N(CC(=O)N2CCCCCC2)c2ccc(C)cc2)cc1,-10
21,Cc1ccc(CCC(=O)Nc2ccc(Cl)cc2)o1,-5.96
22,COc1ccc(-n2cccc2/C=C2/C(=N)N3C(c4ccccc4)=CSC3=NC2=O)cc1,-1.54
23,N#CC1=C(SCc2ccccc2)NC(=O)CC1c1ccccc1Cl (stereo not drawn),-4.08
24,Cn1cc2c(c1-c1ccccc1Br)c(=O)n(C)c(=O)n2C,2.41
25,Cc1ccc(-c2onc(C)c2C)cc1S(=O)(=O)NCc1ccc(Cl)cc1,-8.27
26,CS(=O)(=O)c1ccc2nc(NC(=O)C3C4C=CC(C4)C3C(=O)O)sc2c1 (stereo not drawn),-0.996

row,Compound,% Inhibition @ 10 uM [%]
1,CC(C)CCNc1nc2c(-c3ccc(Cl)cc3)nnn2c2ccccc12,-6.52
2,CN1CCC(Nc2ccc3c[nH]nc3c2)CC1,-0.0953
3,O=C1CC(Nc2ccc(F)cc2)C(=O)N1c1ccc(Br)cc1 (stereo not drawn),-5.31
4,S=C1NCN(Cc2ccccc2)CN1Cc1ccccc1,1.52
5,CCOc1ccc(-c2[nH]nc3c2C(c2ccncc2)C(C#N)=C(N)O3)c(OCC)c1 (stereo not drawn),-4.43
6,Cc1nc2c3cccnc3nn2c(C)c1CCC(=O)NC1CCCCCC1,-3.45
7,Brc1ccc(OCCCCCn2ccnc2)cc1,-2.54
8,Cc1nc(NC(=O)c2ccc(C(C)C)cc2)sc1C(=O)N(C)C,0.389
9,Nc1ccnc(C(F)(F)F)c1C(=O)c1ccccc1,-5.47
10,CCCCc1ccc(NC(=O)C23CCC(C)(C(=O)C2=O)C3(C)C)cc1 (stereo not drawn),-2.53
11,CCOC(=O)c1c(-c2ccc(Cl)cc2)nn2c1NCN(CCOC)C2,-1.08
12,CCCc1[nH]nc2c1C(c1ccc3ccccc3c1)C(C#N)=C(N)O2 (stereo not drawn),-6.62
13,Nc1cccc(C(=O)Nc2ccc(N)cc2Cl)c1,-2.91
14,CCOC(=O)N1CCN(C(=O)CN(Cc2ccccc2)S(C)(=O)=O)CC1,-4.52
15,O=C(CSc1nnc(CSc2nc3ccccc3s2)n1-c1ccccc1)NCc1ccco1,-4.97
16,NS(=O)(=O)c1ccc(O)c2ccccc12,-4.26
17,Cc1c(CNCCc2ccc(Cl)cc2)c(C(=O)O)c(C)n1Cc1ccccc1,1.41
18,Cc1oc2ccc(O)c(CN3CCOCC3)c2c1C(C)O (stereo not drawn),2.86
19,COc1ccc(C2C3=C(O)CC(C)(C)CC3=Nc3nc(SC)nc(N)c32)cc1OC (stereo not drawn),-2.56
20,COc1ccccc1NC(=O)CCC1CCCC1,-0.872
21,COc1ccc(C2CC(O)=C/C(=N/Cc3ccccc3)C2)cc1 (stereo not drawn),-4.98
22,CCOC(=O)c1oc2ccc(S(=O)(=O)n3nc(-c4ccc(OC)cc4OC)cc3N)cc2c1C,5.77
23,CC1CCN(C(=O)c2ccc(C(=O)N3CCC(C)CC3)cc2)CC1,-2.87
24,Cc1cccc(-c2nc(-c3ccc(-c4ccccc4)cc3)c(-c3ccccc3)[nH]2)c1,-6.06
